# According to PubChem BioAssay (Tox21):
# Where “and” joins values, the source holds several entries; their conditions need not be identical. Equal values may be shown once. The shares of active, inactive and inconclusive entries below differ from those in the screen. For some of these results: Potencies beside an inconclusive call are fits to weak or partial responses and may not hold up. A structure can be active in one record and inactive in another. Calls of active or inactive are those of the source. Unless noted, the call rests on the fitted dose curve; in most records, active means well fitted curve in the direction sought with a large enough effect in the repeat runs; inconclusive means weak or mixed curves; inactive means no such curve, though single readings can be large; an effect the other way counts as inactive or inconclusive.
# Key:
# [1] = qHTS assay to identify small molecule agonists of the AP-1 signaling pathway (AID 1159526; calls by dose curve; further: potency means the concentration at half of the fitted maximal effect; on activation: on the % scale 0 is the no-effect control and ±100 the full control effect); details: ME-180 (cervical carcinoma) AP-1-bla reporter, beta-lactamase FRET ratio, 5 h; activation: at 76.8 µM (top of the series) unless noted
# [2] = molecular target: Retinoic acid receptor RXR-alpha (Homo sapiens) (UniProt P19793); assay: qHTS assay to identify small molecule agonists of the RXR signaling pathway (AID 1159527; calls by dose curve; further: nearly all actives have a fitted effect of over 35% in size; further: potency means the concentration at half of the fitted maximal effect; on activation: on the % scale 0 is the no-effect control and ±100 the full control effect); details: HEK293T RXRa-UAS-bla, beta-lactamase ratio, 16 h; activation: at 76.8 µM (top of the series) unless noted
# Method in brief: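 Cells plated at 2,000/well, rested 5 hr at 37 C, pin-dosed with DMSO compound solutions, incubated 16 hr, then loaded with B/G FRET substrate for 2 hr at RT before dual-emission fluorescence reading.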
# [3] = qHTS assay to identify small molecule agonists of the RXR signaling pathway - cell viability counter screen (AID 1159529); further: nearly all actives have a fitted effect of over 50% in size; further: potency means the concentration at half of the fitted maximal effect
# Method in brief: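 Steps: seed RXR-alpha-UAS-bla HEK 293T cells in assay medium containing 2% charcoal-stripped FBS; incubate 5 hr; add compounds in DMSO; incubate 16 hr at 37 C; after the bla read, add CellTiter-Glo and read luminescence at 30 min.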
# [4] = molecular target: Luciferin 4-monooxygenase (Photinus pyralis) (UniProt P08659); assay: qHTS assay to identify small molecule inhibitors of firefly luciferase (AID 1224835); further: potency means the concentration at half of the fitted maximal effect; nearly all actives have a fitted effect of over 25% in size
# Method in brief: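 Biochemical qHTS: compounds run as interplate titrations against purified firefly enzyme, with D-luciferin and ATP each at its KM concentration. Light output recorded by CCD imaging.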
# [5] = qHTS assay to identify small molecule antagonists of the retinoic acid receptor (RAR) signaling pathway (AID 1159552; further: nearly all actives have a fitted effect of over 50% in size; further: potency means the concentration at half of the fitted maximal effect)
# Method in brief: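 Retinol at 1 uM final stimulated RARE-luciferase expression in C3RL4 cells exposed to test compounds for 6 hr at 37 C. Reduced luminescence, read 30 min after detection reagent, indicated pathway antagonism.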
# [6] = qHTS assay to identify small molecule agonists of the retinoic acid receptor (RAR) signaling pathway (AID 1159553); details: C3RL4 RARE luciferase reporter, agonist, 6 h; activation: at 73.3 µM (top of the series) unless noted; further: potency means the concentration at half of the fitted maximal effect; on activation: on the % scale 0 is the no-effect control and ±100 the full control effect
# Method in brief: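 C3RL4 cells carrying a RARE luciferase reporter were plated overnight at 37 C, then exposed to compounds in DMSO for 6 hr at 37 C and 5% CO2. Luminescence was read 30 min after luciferase reagent addition at room temperature.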
# [7] = qHTS assay to identify small molecule antagonists of the estrogen related receptor (ERR) signaling pathway from Tox21 library - cell viability counter screen (AID 1224834); further: potency means the concentration at half of the fitted maximal effect; nearly all actives have a fitted effect of over 30% in size
# Method in brief: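 ERR reporter cells were plated 6 h before compound addition, then exposed to test compounds in DMSO for 17.5 h at 37 C. Viability was read as CellTiter-Fluor fluorescence after a 30-minute incubation at 37 C.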
# [8] = qHTS assay to identify small molecule antagonists of the retinoid acid receptor (RAR) signaling pathway - cell viability counter screen (AID 1159551); further: potency means the concentration at half of the fitted maximal effect; nearly all actives have a fitted effect of over 35% in size
# Method in brief: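 C3RL4 cells were seeded overnight at 37 C, then treated with compounds plus 1 uM (final) retinol for 6 h at 37 C. Viability was read as ATP by CellTiter-Glo luminescence after 30 min at room temperature.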
# [9] = qHTS assay to identify small molecule agonists of the constitutive androstane receptor (CAR) signaling pathway - cell viability counter screen (AID 1224836); further: potency means the concentration at half of the fitted maximal effect; nearly all actives have a fitted effect of over 45% in size
# Method in brief: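 Cells were seeded and incubated 4 hrs. Compounds were added across 15 concentrations together with PK11195 at 0.75 uM final. Plates were incubated 23 hrs at 37 C. CellTiter-Fluor was added and fluorescence measured.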
# [10] = qHTS assay to identify small molecule antagonists of the constitutive androstane receptor (CAR) signaling pathway - cell viability counter screen (AID 1224837); further: nearly all actives have a fitted effect of over 45% in size; further: potency means the concentration at half of the fitted maximal effect
# Method in brief: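 HepG2 cells stably expressing hCAR and a CYP2B6-2.2kb reporter were plated and pre-incubated 4 hr at 37 C/5% CO2, then given compounds at 15 concentrations plus 50 nM CITCO (final). After 23 hr, viability was read by CellTiter-Fluor fluorescence.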
# [11] = qHTS assay to identify small molecule antagonists of the estrogen related receptor (ERR) signaling pathway - cell viability counter screen (AID 1224818);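 further: viability measured after 17.5 h of compound exposure; on the % scale 0 is the no-effect control and ±100 the full control effect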
# Method in brief: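 ERR reporter cells plated 6 h at 37 C/5% CO2, then compounds in DMSO pin-transferred and incubated 17.5 h at 37 C. Viability read as CellTiter-Fluor fluorescence after 30 min at 37 C.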
# [12] = qHTS assay to identify small molecule antagonists of the estrogen related receptor (ERR) signaling pathway (AID 1224819;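 further: luminescence from an ERR-driven luciferase reporter measured with One-Glo reagent; on the % scale 0 is the no-effect control and ±100 the full control effect; nearly all actives have a fitted effect of over 50% in size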)
# Method in brief: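 ERR reporter cells were plated at 2,000 cells/well and left 6 h at 37 C/5% CO2 before pin-tool transfer of compounds in DMSO. After 18 h at 37 C, One-Glo was added and luminescence was read 30 min later at room temperature.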
# [13] = qHTS assay to identify small molecule antagonists of the estrogen related receptor signaling pathway with the pleiotropic PPARgamma coactivator (PGC) cell viability counter screen (AID 1224822; further: potency means the concentration at half of the fitted maximal effect)
# Method in brief: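 PGC/ERR cells were seeded at 2,000 cells/well, rested 6 h at 37 C/5% CO2, then given compounds in DMSO by pin tool and incubated 17.5 h at 37 C. Viability came from CellTiter-Fluor fluorescence after 30 min.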
# [14] = qHTS assay to identify small molecule agonists of the AP-1 signaling pathway - cell viability counter screen (AID 1159525; calls by dose curve; further: nearly all actives have a fitted effect of over 55% in size; further: potency means the concentration at half of the fitted maximal effect)
# Method in brief: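 AP-1-bla ME-180 cells in Opti-MEM with 0.5% dialyzed FBS, compound exposure 5 h at 37 C in 15-point titration. Viability read in the same wells as ATP content by CellTiter-Glo luminescence, normalised to tetra-n-octylammonium bromide and DMSO controls.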
# Tags describe the fitted curve by direction and shape or compound fluorescence and quenching.
# Sequence of UniProt P19793 (P19793 whole entry, looked up): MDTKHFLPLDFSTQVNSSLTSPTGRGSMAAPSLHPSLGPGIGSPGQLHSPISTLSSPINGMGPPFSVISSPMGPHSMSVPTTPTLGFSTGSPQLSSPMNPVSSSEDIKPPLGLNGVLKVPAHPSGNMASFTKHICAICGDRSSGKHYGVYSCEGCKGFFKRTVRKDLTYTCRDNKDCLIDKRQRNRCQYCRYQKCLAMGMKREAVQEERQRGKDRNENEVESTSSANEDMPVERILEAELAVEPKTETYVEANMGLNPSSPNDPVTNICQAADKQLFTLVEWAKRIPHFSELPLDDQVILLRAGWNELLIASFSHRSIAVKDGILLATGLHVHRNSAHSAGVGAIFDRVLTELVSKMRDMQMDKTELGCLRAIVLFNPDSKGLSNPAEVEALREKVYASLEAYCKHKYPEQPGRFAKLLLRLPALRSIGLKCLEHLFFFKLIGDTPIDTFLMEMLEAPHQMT
# Sequence of UniProt P08659 (P08659 whole entry, looked up): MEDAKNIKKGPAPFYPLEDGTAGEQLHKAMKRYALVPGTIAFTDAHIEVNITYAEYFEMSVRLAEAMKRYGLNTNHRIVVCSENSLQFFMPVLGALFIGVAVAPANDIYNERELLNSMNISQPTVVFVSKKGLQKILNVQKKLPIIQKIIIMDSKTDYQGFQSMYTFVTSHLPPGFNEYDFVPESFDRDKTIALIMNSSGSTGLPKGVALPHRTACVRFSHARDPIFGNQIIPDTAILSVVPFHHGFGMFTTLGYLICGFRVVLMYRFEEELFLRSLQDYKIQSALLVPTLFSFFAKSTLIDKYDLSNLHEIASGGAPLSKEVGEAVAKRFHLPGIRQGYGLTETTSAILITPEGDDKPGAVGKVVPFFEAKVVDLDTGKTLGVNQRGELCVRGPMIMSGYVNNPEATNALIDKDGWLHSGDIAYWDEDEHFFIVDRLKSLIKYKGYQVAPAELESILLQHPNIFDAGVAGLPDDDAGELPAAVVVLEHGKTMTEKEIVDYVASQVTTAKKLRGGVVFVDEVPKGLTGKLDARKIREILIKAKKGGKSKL
smiles,measurement,setting,value
Cc1cccc(Cc2cnc[nH]2)c1C,Potency,[1],"inconclusive: 12 µM [falling, partial curve]"
CCCCCCCCCCCCBr,Potency,[1],inactive
same,activation,[2],inconclusive: -5.69%
same,Potency,[3],"inconclusive: 19.5 µM [cytotoxic, partial curve]"
same,Potency,[4],"inconclusive: 44.8 µM [inhibitor, partial curve, poor fit]"
CC(C)(C)c1cc(O)ccc1O,Potency,[1],"inconclusive: 38.9 µM [cytotoxic, partial curve] and inconclusive: 61.6 µM [cytotoxic, partial curve, poor fit]"
same,Potency,[3],active: 21.9 µM and active: 24.5 µM
same,Potency,[5],"inconclusive: 34.4 µM [inhibitor, partial curve]"
same,Potency,[6],"inactive and inconclusive: 77 µM [inhibitor, single point]"
same,Potency,[7],inconclusive: 68.6 µM [cytotoxic]
same,Potency,[4],active: 71 µM
CN(C)c1ccc(N=O)cc1,Potency,[1],"inconclusive: 6.18 µM [cytotoxic, full curve] and inconclusive: 19.5 µM"
same,Potency,[3],"active: 34.8 µM and inconclusive: 54.9 µM [cytotoxic, single point]"
same,Potency,[8],"inconclusive: 68.8 µM [cytotoxic, single point] and inconclusive: 68.6 µM [cytotoxic, single point]"
same,Potency,[5],"active: 24.4 µM and inconclusive: 17.2 µM [inhibitor, full curve]"
same,Potency,[6],"inconclusive: 0.969 µM [activator, full curve, poor fit]"
same,activation,[6],inconclusive: -1.85% [phenotype inactive]
same,Potency,[9],active: 27.4 µM and active: 43.3 µM
same,Potency,[10],active: 30.7 µM and active: 27.3 µM
CCCCCCCC[N+](C)(CCCCCCCC)CCCCCCCC,Potency,[1],"inconclusive: 13.8 µM [falling, full curve] and inconclusive: 5.5 µM [falling, full curve]"
same,Potency,[3],active: 346 nM and active: 15.5 µM and active: 6.16 µM
same,Potency,[8],active: 27.3 µM and active: 61.2 µM
same,Potency,[6],"inconclusive: 21.6 µM [inhibitor, full curve] and inconclusive: 2.73 µM [inhibitor, full curve] and inconclusive: 9.69 µM [inhibitor, full curve]"
same,Potency,[7],active: 17.2 µM and active: 1.72 µM and active: 21.7 µM
same,Potency,[10],active: 19.3 µM and active: 13.7 µM and active: 17.2 µM
CCN(CC)CCc1c[nH]c2ccccc12,Potency,[1],inconclusive: 7.24 µM [full curve]
same,Potency,[6],"inconclusive: 90.4 µM [activator, partial curve, poor fit]"
CN(C)CCO,Potency,[1],"inconclusive: 62.1 µM [activator, partial curve, poor fit]"
same,Potency,[6],"inconclusive: 24.5 µM [inhibitor, full curve]"
CC(C)C(Nc1ccc(C(F)(F)F)cc1Cl)C(=O)OC(C#N)c1cccc(Oc2ccccc2)c1 (stereo not given),Potency,[1],"inconclusive: 22.1 µM [falling, partial curve]"
same,Potency,[2],inactive
same,Potency,[5],inactive
same,activation,[6],inconclusive: -0.233% [phenotype inactive] [at 94.8 µM]
COc1ccccc1OC,Potency,[1],inactive
same,Potency,[5],inactive
O=C(CCCN1CCC2(CC1)C(=O)NCN2c1ccccc1)c1ccc(F)cc1,Potency,[1],"inconclusive: 12 µM [falling, partial curve, poor fit]"
same,Potency,[2],"inconclusive: 23.9 µM [rising, partial curve]"
same,Potency,[8],"inconclusive: 10.6 µM [rising, partial curve, poor fit]"
same,Potency,[5],"inconclusive: 26.6 µM [inhibitor, partial curve]"
same,Potency,[11],inactive
same,Potency,[12],inactive
same,Potency,[13],"inconclusive: 26.6 µM [cytotoxic, partial curve, poor fit]"
same,Potency,[9],active: 5.96 µM
C#CC1(O)CCCCC1,Potency,[14],inactive
same,Potency,[3],inactive
same,Potency,[6],inactive
c1cc2c(c(N3CCNCC3)c1)OCCO2,Potency,[14],"inconclusive: 0.239 µM [cytotoxic, single point]"
same,Potency,[10],inactive
C1=Cc2cccc3cccc1c23,Potency,[14],"inconclusive: 12.1 µM [cytotoxic, full curve]"
same,Potency,[3],inactive
CCN(C(C)=O)c1cccc(-c2ccnc3c(C#N)cnn23)c1,Potency,[1],inactive
ClC1=C(Cl)[C@]2(Cl)[C@@H]3[C@H]4C[C@H]([C@@H]5O[C@H]45)[C@@H]3[C@@]1(Cl)C2(Cl)Cl,Potency,[1],inconclusive: 61.6 µM
same,Potency,[2],inconclusive: 54.9 µM [single point]
same,Potency,[3],"inconclusive: 43.6 µM [cytotoxic, partial curve]"
same,Potency,[6],"inconclusive: 76.9 µM [inhibitor, single point]"
